# Among all 52,000 compounds or so, about 4,300 (8.3%) were called active. Cut-off read from the data, not from the text of the source: active = survival mostly below about 52% (no sharp cut-off); inactive = mostly above about 56%. This is one part of the list.
# System: DeltatarO mutant
# Assay: S. aureus survival, RN4220 and DeltatarO strains – OD600, teichoic acid synthesis inhibitors, primary screen (AID 463173)
# Conditions: S. aureus RN4220 wild type/DeltatarO growth, OD600, 18 h, hits give low values, screened at 18.75 µg/mL (by protocol)
row,SMILES,survival
1,CCOC(=O)Cn1nc(-c2ccccc2)c2cnc3ccc(OCC)cc3c21,inactive: 109%
2,Cc1oc(-c2cccc(Cl)c2)nc1CN1CCC(C(=O)NCCCN2CCN(c3ccccc3F)CC2)CC1,inactive: 69%
3,O=C(CN(CCc1ccccc1)S(=O)(=O)c1ccc(Br)cc1)NCc1ccc(Cl)cc1,inactive: 123%
4,CCC1CN(C(=O)C2CCN(S(=O)(=O)c3c(C)noc3/C=C/c3ccccc3F)CC2)c2cc(Cl)ccc2O1 (stereo not given),inactive: 94%
5,COc1ccc(N(Cc2cccs2)C(=O)c2ccc(Br)o2)cc1,inactive: 64%
6,Cc1ccc(-c2nc3ccccc3s2)cc1NC(=O)COc1ccccc1,inactive: 54%
7,CCOc1ccc(/C=C/c2nc(C#N)c(N3CCCCC3)o2)cc1,inactive: 52%
8,CCOC(=O)c1cccc(NC(=O)CCc2c(C)nn(-c3ccc(N4CCCC4)nn3)c2C)c1,inactive: 93%
9,Cc1ccc(OCC(=O)NCC2(N3CCOCC3)CCCCC2)cc1C,inactive: 101%
10,CCCCN(CCCC)CCNC(=O)c1cn(CC)c2ccc(S(=O)(=O)N3CCc4ccccc4C3)cc2c1=O,inactive: 74%
11,CCCN(CCC)CCNC(=O)CN1C(=O)COc2ccc(S(=O)(=O)N3CCC(C)CC3)cc21,inactive: 99%
12,COC(=O)C1C(O)=C(C=Nc2ccccc2)C(=O)CC1(C)C (stereo not given),inactive: 111%
13,CCOc1cc(C2C(C(=O)Nc3ccc(OC)cc3)=C(C)Nc3nc(SC)nn32)ccc1O (stereo not given),inactive: 160%
14,O=C(C1CCN(c2ncnc3c2nc2n3CCCCC2)CC1)N1CCN(c2ccc(F)cc2)CC1,active: -1%
15,CC(=O)N1C(O)CCN1c1ccccc1 (stereo not given),inactive: 69%
16,COc1ccc(NC(=O)C2CCCN(S(=O)(=O)c3ccc4c(c3)CCCC(=O)N4)C2)cc1OC (stereo not given),inactive: 88%
17,Cc1ccc2c(=O)cc(C(=O)Nc3ccc(S(=O)(=O)Nc4nc(C)cc(C)n4)cc3)oc2c1,inactive: 78%
18,CCc1cc2c(=O)n(-c3ccccc3)cnc2s1,inactive: 73%
19,COCCNC(=O)CSc1cn(CC(=O)N2CCCCCC2)c2ccccc12,inactive: 73%
20,CC1CC(CN)CC(CO)C1 (stereo not given),inactive: 84%
21,Cc1nn(C)cc1C(C(=O)NC1CCCCC1)N(CCc1ccccc1)C(=O)c1cnccn1 (stereo not given),inactive: 97%
22,CCOc1ccc(OCC)c(NC(=O)C2CCN(S(=O)(=O)c3cn(C)cn3)CC2)c1,inactive: 117%
23,CSc1ccc(CCNC(=O)Cn2ncc3c(=O)oc4ccccc4c32)cc1,inactive: 73%

row,SMILES,survival
1,CCC(Sc1ncnc2sc3c(c12)CCCC3)C(=O)OC(C)C (stereo not given),active: -7%
2,CCc1ccc(NC(=O)Cn2c(=O)n(Cc3nc(-c4ccccc4)no3)c(=O)c3cc4c(cc32)OCO4)cc1,inactive: 97%
3,COc1ccc(S(=O)(=O)N2CCC(c3ccncc3)CC2)cc1OC,inactive: 108%
4,O=C(c1ccco1)n1nc(-c2ccc(Cl)cc2)nc1NCc1ccccc1,inactive: 74%
5,Cc1ccc(N2C(=O)NC(NS(=O)(=O)c3ccc(Cl)cc3)(C(F)(F)F)C2=O)cc1C (stereo not given),inactive: 76%
6,C/C=N/N(c1ccccc1)c1ccccc1,inactive: 83%
7,COc1ccc(CC(=O)NC2CCN(S(=O)(=O)c3ccccc3C(=O)O)CC2)cc1OC,inactive: 77%
8,COc1ccc(S(=O)(=O)NCC(c2ccc(N(C)C)cc2)N2CCc3ccccc32)cc1 (stereo not given),inactive: 78%
9,Cc1cccc(C(=O)Nc2ccc(C(=O)OCc3cc(=O)n4nc(C5CC5)sc4n3)cc2)c1,inactive: 84%
10,COc1ccccc1N1CCN(C(=O)CCc2nnc3n(C)c(=O)c4sccc4n23)CC1,inactive: 155%
11,CCCCC(=O)OC1=C(C(C)=O)N(Cc2ccccc2)S(=O)(=O)c2ccccc21,inactive: 67%
12,COc1ccc(OC)c(Nc2ncnc3c2cnn3-c2cccc(Cl)c2)c1,inactive: 76%
13,Cc1ccn2c(Nc3ccc(F)cc3)c(-c3ccccn3)nc2c1,inactive: 105%
14,O=C(O)CN1CC(=O)NC1=O,inactive: 95%
15,O=C(Nc1c(O)c2ccccc2oc1=O)c1cccc(F)c1,inactive: 93%
16,CCc1ccccc1NC(=O)Cc1cn(C)c2ccccc12,inactive: 86%
17,CCOc1ccc(S(=O)(=O)Nc2cccc(C)c2)c2cccnc12,inactive: 100%
18,CCNC(=O)c1c(NC(=O)Cc2coc3cc(C)ccc23)sc2c1CCCC2,inactive: 71%
19,CCn1c(C(=O)NCc2ccc(OC)cc2)cc2sc(Cl)cc21,active: 41%
20,CCn1cc(C(=O)N2CCN(c3ccccc3)CC2)c(=O)c2cc(S(=O)(=O)N3CCCC3)ccc21,inactive: 84%
21,CCC(=O)N1CCc2cc(CNC(=O)Nc3cc(C)ccc3C)ccc21,inactive: 84%
22,Oc1c(C(c2ccccc2Cl)N2CCOCC2)sc2nc(-c3ccco3)nn12 (stereo not given),active: 0%
23,Cc1cccc(CNC(=O)CN2C(=O)C3CCCCN3c3ccc(C(=O)N4CCCC4)cc32)c1 (stereo not given),inactive: 101%

row,SMILES,survival
1,COc1ccc(CCN2C(=O)CN=C2Nc2ccc(F)cc2)cc1OC,inactive: 78%
2,Cc1ccc(-c2nnc(Nc3ccc(Cl)c(Cl)c3)c3ccccc23)cc1S(=O)(=O)N(C)C,inactive: 75%
3,Cc1ccc(C(=O)N2CCN(c3ccc(F)cc3)CC2)cc1NC(=O)c1nsc2ccccc12,inactive: 94%
4,Cc1cc(C)cc(NC(=O)c2ccc3c(O)c(S(=O)(=O)c4ccccc4)c(=O)[nH]c3c2)c1,inactive: 79%
5,Cc1c(Cl)cccc1NC(=O)CSc1ncc(S(=O)(=O)c2ccc(C(C)C)cc2)c(=O)[nH]1,inactive: 54%
6,COc1cc(Cl)c(C)cc1NC(=O)c1ccc(CN2C(=O)CCn3nc(C)cc32)cc1,inactive: 75%
7,COC(=O)c1ccccc1NC(=O)C1(c2cccs2)CCOCC1,inactive: 83%
8,CCCCOC(=O)c1ccc(NC(=O)Cc2coc3c(C)c(C)ccc23)cc1,inactive: 79%
9,Cc1ccc(OCC(=O)N(Cc2ccco2)c2ccccn2)cc1,inactive: 59%
10,CCNC(=O)C1CCCN(c2nnc(C)c3c(C)n(-c4ccc(C)cc4)nc23)C1 (stereo not given),inactive: 78%
11,CCC(=O)Nc1ccccc1-c1nnn(CC(=O)N2c3ccccc3CC2C)n1 (stereo not given),inactive: 92%
12,CCOC(=O)c1[nH]c(C)c(CCC(=O)NCc2cccc(C)c2)c1C,inactive: 82%
13,CCOC(=O)c1c(C)[nH]c(C)c1S(=O)(=O)N1CCCC(C(=O)Nc2ccc(C)c(N(C)C)c2)C1 (stereo not given),inactive: 88%
14,CCOC(=O)C1=NN(c2ccc(C)cc2)CC1C(=O)OC (stereo not given),inactive: 73%
15,COc1cccc(NC(=O)CSc2nccn2Cc2ccc3c(c2)OCO3)c1,inactive: 70%
16,Cc1nc(-n2nc(C)c(Cc3ccc(Cl)cc3)c2C)sc1C(=O)N1CCCCC1C (stereo not given),inactive: 99%
17,O=C(CSCc1ccccc1Cl)NCc1ccc(Cl)c(Cl)c1,inactive: 144%
18,CCC(C)(C)N1CC(=O)N(Cc2ccccc2)C(c2ccc(OC)cc2)C1=O (stereo not given),inactive: 78%
19,CC(=O)c1cccc(NC(=O)Cn2c(=O)oc3cc(S(=O)(=O)NC4CCCC4)ccc32)c1,inactive: 83%
20,NNC(=O)CCC(=O)Nc1ccccc1,inactive: 95%
21,CC(=O)c1ccc(Nc2nc3ccccc3nc2-n2nc(C)cc2C)cc1,active: 44%
22,CC(=O)N1CCN(c2nc3c(C)ccc(Cl)c3s2)CC1,inactive: 68%
23,COc1ccc2c(c1)CCc1c(C(=O)Nc3c(C)nn(Cc4ccc(Cl)cc4)c3C)noc1-2,inactive: 107%

row,SMILES,survival
1,COc1ccc(/C=C\c2onc(C)c2S(=O)(=O)N2CCC(C(=O)Nc3cccc(C)c3C)CC2)cc1,inactive: 68%
2,CCOc1ccc(NC(=O)Cn2nnc(C(=O)NCc3cccs3)c2N)cc1,inactive: 92%
3,Cc1cccc(C)c1NC(=O)CCS(=O)(=O)c1ccc2c(c1)CC(C)N2C(=O)C1CC1 (stereo not given),inactive: 81%
4,CCOc1ccccc1Nc1nc(-c2ccc(C)cc2)c(CC(=O)O)s1,inactive: 55%
5,O=c1[nH]c2ccc(NCc3ccc(-c4ccc(Cl)cc4)o3)cc2[nH]1,inactive: 105%
6,CCC1(CC)C(=O)N(C)C(=O)NC1=Nc1ccccc1,inactive: 94%
7,Cc1ccc(NC(=O)CN2C(=O)CC(c3ccc(F)cc3)=Nc3ccccc32)cc1F,inactive: 74%
8,Nc1nnc(SCC(=O)N2CCN(c3ccccc3)CC2)s1,inactive: 93%
9,COc1ccc(OC)c(NC(=O)C(C)n2nc(C)c3c(C)n(-c4ccccc4)nc3c2=O)c1 (stereo not given),inactive: 93%
10,COc1ccc(C2c3c(oc4ccc(Cl)cc4c3=O)C(=O)N2CCCN(C)C)cc1OC (stereo not given),inactive: 79%
11,COc1cccc(CNC(=O)CN2C(=O)N(c3c(C)cccc3C)S(=O)(=O)c3ccccc32)c1OC,inactive: 70%
12,CCC(=O)Nc1nc(-c2ccc(OC)cc2)cs1,inactive: 97%
13,CCn1c(N2CCN(CC(=O)c3ccc(OC)cc3)CC2)nc2ccccc21,inactive: 72%
14,CCc1nn(CC(=O)N2CCN(c3cc(C)ccc3C)CC2)c(=O)c2cc3occc3n12,inactive: 74%
15,O=S(=O)(Nc1ccc(-c2ccc(N3CCCCCC3)nn2)cc1)c1cccc(C(F)(F)F)c1,inactive: 117%
16,COc1ccc(CCNc2nc(SCc3ccc(F)cc3)nc3ccccc23)cc1OC,inactive: 99%
17,CCc1ccc(-c2nc(SCC(=O)NCC3CCCO3)c(-c3ccc(F)cc3)[nH]2)cc1 (stereo not given),inactive: 80%
18,CNC(=O)c1ccc(CSc2nc3cccnc3n2Cc2cccc(F)c2)cc1,inactive: 118%
19,N#Cc1ccc(NC(=O)c2cc(-c3cccc(Cl)c3)on2)cc1,inactive: 71%
20,O=C(Nc1cccc(-c2nc3ccccc3[nH]2)c1)c1ccccc1F,active: 29%
21,Cc1ccsc1CN(C(=O)c1ccc(Br)cc1)C1CCS(=O)(=O)C1 (stereo not given),inactive: 90%
